Paper PMC12136788
The other results are listed elsewhere or left out.

B1: chr11:100882373:100882374:+_ENSMUSG00000019302_ENSMUST00000044721|mus_mus|motif|central (ssRNA)
RNA: GGGAGUUCUACAGUCCGACGAUCUUCCUGGUUAGUGUUGAUUUCCUUCAGUUCAUUUUCAAUCUUCUCGAAAUUGGCCUCGGAGUCGAUCAUGUCCCGAGGGAAGGGCACCUCUGGGUUUUCACCGGUGUCCAUAAUUGGGAUCAACAGAGGAUUGAGCAUCA
B2: chr7:149068622:149068623:-_ENSMUSG00000025139_ENSMUST00000001950|mus_hu|mus_mus_mus_hu_False|1_8 (ssRNA)
RNA: GGGAGUUCUACAGUCCGACGAUCGUGAGGCCUCUGAGUGUGGCUUGUGGUCUGUCCUGGGUUAGAGUUGUUAAUAUCACGGAACAUACCAUCUAGAACGUUCCAGUCCCGCCUGACACCUUCAUUCGCAAGAGGGCAUCUGCUCAACAGAGGAUUGAGCAUCA
B3: 22999476_23000114_3599_CDS_ENSG00000068793_ENST00000560848|human|control|control (ssRNA)
RNA: GGGAGUUCUACAGUCCGACGAUCCCCAUCACCAAAGCACUGCUCGACUGUGAACUCGUGUGUCCCCACGGGAAUGCAGUAGACAAACUGCAUGGCACUCCACAGUCUGUGAAACUCCACACACUCGUCCACAUGCAUGACCCCCAACAGAGGAUUGAGCAUCA
B4: chr14:78183846:78183847:+_ENSG00000119705_ENST00000557342|hu_hu|hu_hu_hu_mus_False|8_28 (ssRNA)
RNA: GGGAGUUCUACAGUCCGACGAUCUCUCAGAAAUCUUUCUUCAUCAGAUGUUUGAGCUCCGUGCAAAGCCUUUGCUCUUUGAGCUUGAACGUGGAUCUAUGGGAGGGCUAUAAUAUGCAGAAAAGGUUGUAGUGCAUUUAAAGACAACAGAGGAUUGAGCAUCA
B5: 104379465_104380804_1343_3pUTR_ENSG00000139372_ENST00000392872|human|control|control (ssRNA)
RNA: GGGAGUUCUACAGUCCGACGAUCUCUGUAAAUGACUGGGUCAUCCACUGCCCAUUAGGAAUGCCACUGAAAGCUGAUUCUCCUCUUAACUCCACGCUCUCAAUUAGCCCAUUUGAAGAGAAGCCACAAGGUUCACUGCUGCAUCAACAGAGGAUUGAGCAUCA
B6: chrX:71549400:71549401:+_ENSMUSG00000019087_ENSMUST00000019231|mus_hu|mus_mus_mus_hu_False|38_58 (ssRNA)
RNA: GGGAGUUCUACAGUCCGACGAUCGCAGUAGGAAGAGGGAAGCUCUUCAGUCCAGUGCGCUGCAGGGUGGGAAAGCACAACCUAGACCACCGUCCCACCUCAAUUCCCCCCACUGGCACAGGGUCACACAAUCUGGGUCAAAGACAACAGAGGAUUGAGCAUCA
B7: chr7:6441565:6441566:+_ENSG00000136238_ENST00000348035|hu_mus|motif|central (ssRNA)
RNA: GGGAGUUCUACAGUCCGACGAUCGGUGAUGGGAGUCAGCUUCUUCUCCUUCAGCUUCUCAAUGGUGUCCUUAUCAUCCCGGAGAUCAAGCUUCGUCCCCACGAGGAUGAUAGGAGUAUUGGGACAGUGGUGUCGCACUUCAGGCAACAGAGGAUUGAGCAUCA
B8: chr22:22143041:22143042:-_ENSG00000100030_ENST00000215832|hu_mus|FALSE|FALSE (ssRNA)
RNA: GGGAGUUCUACAGUCCGACGAUCGAUGUGAUUCAGCUGGUCAAGGUAAUGCUUUCCUGGGAAGAUAGGCCUGUUGGAUAGCAUCUCUGCCAGGAUGCAGCCCACAGACCAAAUAUCAAUGGACUUGGUAUAACCCUUGGAAUUCAACAGAGGAUUGAGCAUCA
B9: chr16:38184571:38184572:+_ENSMUSG00000022812_ENSMUST00000023507|mus_mus|FALSE|FALSE (ssRNA)
RNA: GGGAGUUCUACAGUCCGACGAUCCAGCUGAUACAUAUACAACUUGACAUAGAUCACAGGGAGUGUCUGCUUGGCUCGACUAUAGUGUCUGGCGACUCUGUACACUGUCUCCGGAACAUAGUCCAGCACCAGGUUAAGGUAGACCAACAGAGGAUUGAGCAUCA
B10: 15274082_15275403_1402_CDS_ENSG00000131375_ENST00000253693|human|control|control (ssRNA)
RNA: GGGAGUUCUACAGUCCGACGAUCCCAGCCAGUCAGUGCAUGAAGAUCAAUAUUGGAGUUGGAUCCUGGAAAAUCAUAUCCUCCCAUGACUUUCAUGUAUGCUUUUUCUAUGAGAGAAACCCAUAAUUCACUUUUGUUGUUGGACAACAGAGGAUUGAGCAUCA
B11: chr7:30640729:30640730:+_ENSG00000106105_ENST00000389266|hu_hu|FALSE|FALSE (ssRNA)
RNA: GGGAGUUCUACAGUCCGACGAUCCUGAAUAAUAUUGUUCUUCAAAGCACAGCCAACUGGCCCAAAGUCAUACAGACCACUAACACCUCCAUAAAUAGCAAAAGCUUGAUCAUAGAAAAACCUCCUCUUCAGGGUAUCUUCCAUCAACAGAGGAUUGAGCAUCA
B12: chr16:45382771:45382772:-_ENSMUSG00000022661_ENSMUST00000163230|mus_mus|mus_mus_mus_hu_True|78_88 (ssRNA)
RNA: GGGAGUUCUACAGUCCGACGAUCCUGGGUCAUGUUAUAAGACAAAUGGAUAGGGAGAGCAUGCUUUUCAAAAAAUGUGAGCUAUUGUCUAAGACUAACAAUAUUUAUCUAGCUAUAAAAAUAAGUUAAAUGAAUAAGUUAAGACAACAGAGGAUUGAGCAUCA
B13: chr6:17796276:17796277:+_ENSMUSG00000029534_ENSMUST00000053148|mus_mus|FALSE|FALSE (ssRNA)
RNA: GGGAGUUCUACAGUCCGACGAUCUCUCCAAGCUUUUUGCAUUAUUGCAUCUGCAGGGCGAAGAUGAUCUGAAUCACAAGUAAAGAAUGUCUGGUGGUCCUGGGCAGAGAGGUUCAUGUCAUAGUAGGUCAGAGGCUCUCGUCCCAACAGAGGAUUGAGCAUCA
B14: chr4:19447016:19447017:-_ENSMUSG00000028228_ENSMUST00000029885|mus_hu|FALSE|FALSE (ssRNA)
RNA: GGGAGUUCUACAGUCCGACGAUCUGUGAAAACUGAUAAUUUAGAAAUUGUAAAUGCUUUUAUUCAAAACUGUAAAAAGGCACCAAUUACCCUAGUUUGCUGGAAUCACAGUUCUUAUGAAUAAUAGCAUCUACUGAUGAACAUCAACAGAGGAUUGAGCAUCA
B15: 35072574_35072694_612_5pUTR_ENSG00000165280_ENST00000358901|human|control|control (ssRNA)
RNA: GGGAGUUCUACAGUCCGACGAUCAGCGGCAGCGACGACUCAAACGACGGUCGCAGACGCUUCGCUGAGACUGAGCCGAGAAGAGCCGAAUCAUCGGAAGGGAAGCUGCUCCCACCUCAGCCAAUCAGCGCCUGCCCUGCGGACCAACAGAGGAUUGAGCAUCA
B16: chr1:46159212:46159213:+_ENSG00000159596_ENST00000372025|hu_mus|hu_hu_hu_mus_True|38_48 (ssRNA)
RNA: GGGAGUUCUACAGUCCGACGAUCUCUGAUCCCUCCCAAGAAAGCUAGGAAACCGGCUCCAUAAGCCAUCUGAGUGAAAGCUAGGACGGGAAUAUAAGUUUUUGUCAUUACCAUGAGAAGUGGGGGAGCAGUAAAGGGGAUUAACAACAGAGGAUUGAGCAUCA
B17: 10103097_10106107_2642_CDS_ENSMUSG00000056763_ENSMUST00000071087|mouse|control|control (ssRNA)
RNA: GGGAGUUCUACAGUCCGACGAUCGGAGCUUUCGUGAAUGAAGGAACUUAUGAUGGUGUCGACUGAAGGAGGUCUUUGGAGUUUGCUUGCAAUUUUGUUCUGAAGAGCAGGAACUACAGGAGAAGGCUGUCUCAAGUGCUUUGUCAACAGAGGAUUGAGCAUCA
B18: chr5:106037793:106037794:+_ENSMUSG00000054720_ENSMUST00000067924|mus_hu|FALSE|FALSE (ssRNA)
RNA: GGGAGUUCUACAGUCCGACGAUCCUUUGUGUACAUUUUGUGUGAAAAGGAAAAAAAAAUAGGAAAGGCAUUAAGACUACCUAAUUAUUUAUACUGUAUUUGGUAGAAGCGUGUUUCAGUCAAACUUUAACGAAAAAUAAGUUACAACAGAGGAUUGAGCAUCA
B19: chr14:78183846:78183847:+_ENSG00000119705_ENST00000557342|hu_hu|hu_hu_hu_mus_False|8_98 (ssRNA)
RNA: GGGAGUUCUACAGUCCGACGAUCUCUCAGAAAUCUUUCUUUCUUUUAUGUUUGAGCUCCGUGCAAAGCCUUUGCUCUUUGAGCUUGAACGUGGAUCUAUGGGAGGGAAAGCACUGUCAGAAAAGGUUGUAGUGCAUUUAAAGACAACAGAGGAUUGAGCAUCA
B20: chr4:76721835:76721836:+_ENSG00000138768_ENST00000264904|hu_mus|hu_hu_hu_mus_True|68_108 (ssRNA)
RNA: GGGAGUUCUACAGUCCGACGAUCGUUGGCUGGGGUUUUCUGAGACGCUCUGGAAUAUAACUCAUGUUGCUAAUAAAAUCCUAGUUUCUCUAUGAAAUUCUCUUUGCCAAUCCUCUUCUCUAUUAGUUGCUUUAGUUUCUCUUUCAACAGAGGAUUGAGCAUCA
B21: chr11:46405157:46405158:+_ENSG00000110492_ENST00000395566|hu_hu|hu_hu_hu_mus_False|58_88 (ssRNA)
RNA: GGGAGUUCUACAGUCCGACGAUCCCCUCCCCACUUUGGGCACUUGGUGAGAGGGACAGAGGACAGGCGUGAUUGACAAAGCUAACGGGAAGACAAAAGGCACUGGUGGGUUAUAUCUUGGGCCUGUGGGAGAGGAGGGCUCCGCAACAGAGGAUUGAGCAUCA
B22: chr2:61749799:61749800:-_ENSG00000082898_ENST00000401558|hu_hu|FALSE|FALSE (ssRNA)
RNA: GGGAGUUCUACAGUCCGACGAUCUCCUUCGCACUGGUUCCUUGGAAGAAUCUUCCACCUUGUUUUUAUCACAUUUUCCAAAAUUUGUAGUCCAUAGUAUUUCGUAUUCAUAUUCUGAGAAAAUUCCAAAAUUGUGUCGACUCUCAACAGAGGAUUGAGCAUCA

Each binder was assayed against T1, UNK ZnF1-3 (human, UniProt Q9C0B0 31-174) (assay: nsRBNS (natural sequence RNA bind-n-seq); RBNS binding buffer (assumed for nsRBNS): 25 mM Tris pH 7.5, 150 mM KCl, 3 mM MgCl2, 0.01% Triton X-100, 500 ug/ml BSA, 20 U/ml SUPERase-In, 4 C; UNK is unkempt and MSI1 is Musashi-1; names of the RNAs are library labels; protein concentration not given here; high values mean tight binding).
T1 sequence: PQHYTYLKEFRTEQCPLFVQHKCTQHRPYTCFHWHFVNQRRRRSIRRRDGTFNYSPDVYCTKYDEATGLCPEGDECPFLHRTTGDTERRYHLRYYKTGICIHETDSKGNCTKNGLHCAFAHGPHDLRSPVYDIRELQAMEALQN

In order of falling binding signal:
1. B21  2.93 enrichment R
2. B12  2.57 enrichment R
3. B4  1.86 enrichment R
4. B18  1.82 enrichment R
5. B6  1.39 enrichment R
6. B13  1.38 enrichment R
7. B17  1.36 enrichment R
8. B16  1.32 enrichment R
9. B19  1.02 enrichment R
10. B11  1 enrichment R
11. B5  0.988 enrichment R
12. B9  0.898 enrichment R
13. B8  0.792 enrichment R
14. B10  0.756 enrichment R
15. B15  0.72 enrichment R
16. B3  0.705 enrichment R
17. B22  0.667 enrichment R
18. B2  0.665 enrichment R
19. B7  0.652 enrichment R
20. B14  0.637 enrichment R
21. B20  0.479 enrichment R
22. B1  0.468 enrichment R
